PubChem BioAssay AID485294 (National Center for Advancing Translational Sciences (NCATS), 2010)
Values joined by “and” are separate entries in the source; they are usually repeats but may differ in a detail not shown here. Identical values can stand only once. Hit rate of the full screen: of about 370,000 compounds, about 150 (0.041%) were called active. Inconclusive results, whose numbers are uncertain, are shown with a selection of clear calls. The call rests on the fitted dose curve; in most records, active means well fitted inhibition curve with a large enough effect; inconclusive means small, poorly fitted or top-dose-only effect; inactive means flat fitted curve, though single readings scatter. Where the call is inconclusive, the potency comes from a doubtful curve fit.

The compounds below were run against Beta-lactamase (Escherichia coli (strain K12)) (UniProt P00811) (assay: qHTS Inhibitors of AmpC Beta-Lactamase (assay with detergent)). Settings: AmpC hydrolysis of nitrocefin, absorbance 480 nm, 0.01% Triton; activity change, negative = inhibition: at 114 µM (top of the series).
In short: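 20 mM phosphate pH 7.0 + 0.01% (detergent screen) or 0.0001% Triton X-100; 5.3 nM AmpC reagent; cpd preinc 15 min RT; nitrocefin (800 uM stock) to start; A480 q20 s × 4 min; Activity was normalised to no-enzyme and no-compound control wells.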
Further: nearly all actives have a fitted effect of over 25% in size.
Potency means the concentration at half of the fitted maximal effect; tags describe the fitted curve by direction and shape.
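Wherever activity change, negative = inhibition is given: 0% = no-compound wells and -100% = no-enzyme wells.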

UniProt P00811, sequence (P00811 whole entry, looked up): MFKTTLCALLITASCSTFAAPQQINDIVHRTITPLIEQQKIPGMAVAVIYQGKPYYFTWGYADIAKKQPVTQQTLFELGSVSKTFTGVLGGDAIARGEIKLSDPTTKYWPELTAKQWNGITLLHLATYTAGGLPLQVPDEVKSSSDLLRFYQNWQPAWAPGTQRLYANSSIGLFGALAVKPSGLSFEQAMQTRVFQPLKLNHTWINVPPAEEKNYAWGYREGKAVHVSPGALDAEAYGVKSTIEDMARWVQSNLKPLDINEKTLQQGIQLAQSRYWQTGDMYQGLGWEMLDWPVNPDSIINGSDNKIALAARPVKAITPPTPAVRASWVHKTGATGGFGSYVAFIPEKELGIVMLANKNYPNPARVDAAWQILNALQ

| SMILES | Potency | activity change, negative = inhibition |
| --- | --- | --- |
| CC(NC(=O)c1ccc(N(C)C)cc1)C(c1cccs1)N1CCN(C)CC1 (centres undefined) | inconclusive: 89.1 µM [inhibitor, single point] | – |
| CC(C)Oc1ccc(CNC(=S)N/N=C/c2ccc([N+](=O)[O-])cc2)cc1 | inconclusive: 89.1 µM [inhibitor, single point] | – |
| O=[N+]([O-])c1ccc(-c2nc(=S)c3c(o2)CCCC3)cc1 | inconclusive: 0.316 µM [inhibitor, full curve, poor fit] | – |
| Cn1c(=O)n(C/C=C/c2ccccc2)c(=O)c2c1nc1n2CCCN1Cc1ccccc1 | inconclusive: 1.12 µM [inhibitor, full curve, poor fit] | – |
| CCCc1cc(C(N)=O)c(NC(=O)c2cc(C)on2)s1 | inconclusive: 1.58 µM [inhibitor, full curve, poor fit] | – |
| CC(=O)Nc1ccc(-c2cc(N)n(-c3ccccc3)n2)cc1 | – | inactive: 3.48% |
| COc1ccc(N2CCN(C(=O)CCSCc3ccccc3F)CC2)cc1 | inconclusive: 100 µM [inhibitor, single point] | – |
| CCC1CCCCN1C(=O)c1noc(C(C)C)c1[N+](=O)[O-] (centres undefined) | inconclusive: 2.24 µM [inhibitor, full curve, poor fit] | – |
| CCCCC(=O)Nc1ccc(NC(=O)c2cccnc2)cn1 | inconclusive: 0.631 µM [inhibitor, full curve, poor fit] | – |
| COc1ccc(CNC(=O)c2cc3c(=O)oc4ccc(C)cc4c3s2)c(OC)c1 | – | inactive: 13.5% |
| CCCC(=O)Nc1ccc(-c2nc3cc(C)ccc3o2)cc1 | inconclusive: 1 µM [inhibitor, full curve, poor fit] | – |
| Cc1ccc(C(=O)Nc2ccc(N3CCN(S(C)(=O)=O)CC3)cc2)cc1 | inconclusive: 2.82 µM [inhibitor, single point] | – |
| Cc1ccsc1/C=N/n1c(-c2ccco2)n[nH]c1=S | inconclusive: 1.12 µM [inhibitor, full curve, poor fit] | – |
| CCOC(=O)N/N=C/c1cn(Cc2ccccc2Cl)c2ccccc12 | inconclusive: 3.16 µM [inhibitor, full curve] | – |
| Cc1ccc2c(c1)sc(C)[n+]2CCCS(=O)(=O)[O-] | inconclusive: 89.1 µM [inhibitor, single point] | – |
| Cc1cc(=O)oc2cc(NC(=O)C(C)Oc3ccc(F)cc3)ccc12 (centres undefined) | inconclusive: 0.562 µM [inhibitor, full curve, poor fit] | – |
| COc1cc(-c2ccc(Nc3ccccc3C(=O)O)c(OC)c2)ccc1Nc1ccccc1C(=O)O | – | inactive: 1.56% |
| O=Nc1c(-c2ccccc2)[nH]n(-c2ccccc2)c1=O | inconclusive: 50.1 µM [inhibitor, full curve] | – |
| CCC(C)(C)NC(=O)/C=C/c1ccc(OC)c(S(=O)(=O)N2CCOCC2)c1 | inconclusive: 89.1 µM [inhibitor, single point] | – |
| COC(=O)C1=C(C)N(Cc2ccccc2)C(=NCCc2cccnc2)N[C@H]1c1ccccc1 | inconclusive: 89.1 µM [inhibitor, single point] and inconclusive: 20 µM [inhibitor, full curve] | – |
| COc1cccc(NC(=O)CSc2nc(=O)n(CCN(C)C)c3c2CCCC3)c1 | inconclusive: 0.631 µM [inhibitor, full curve, poor fit] | – |
| COc1ccc(CC(=O)NC(CC(=O)O)c2ccc(OC)cc2)cc1 (centres undefined) | inconclusive: 100 µM [inhibitor, single point] | – |
| CCc1nnc(NC(=O)CSc2ccc(-c3ccc(-n4cccn4)cc3)nn2)s1 | inconclusive: 5.62 µM [inhibitor, full curve, poor fit] | – |

| SMILES | Potency | activity change, negative = inhibition |
| --- | --- | --- |
| CC1CCN(c2ccc(/C=N\Nc3nncn3N)cc2[N+](=O)[O-])CC1 | inconclusive: 0.631 µM [inhibitor, full curve, poor fit] | – |
| OCCN1CCN(c2ncnc3nc[nH]c23)CC1 | inconclusive: 2.82 µM [inhibitor, full curve] | – |
| Cc1ccc(-c2nc(C3CCCN(S(=O)(=O)c4ccc(C)cc4)C3)no2)cc1 (centres undefined) | inconclusive: 0.708 µM [inhibitor, full curve] | – |
| CCN(C(=O)C(C)N1C(=O)/C(=C/c2cccs2)SC1=S)C1CCS(=O)(=O)C1 (centres undefined) | – | inactive: 0.192% |
| CC(C)CN1CN(Cc2ccccc2)CNC1=S | – | inactive: -4.2% |
| CSc1ccccc1Nc1ncnc(N)n1 | inconclusive: 2.24 µM [inhibitor, full curve, poor fit] | – |
| CCCOc1ccc(-c2nn(-c3ccccc3)cc2/C=C2\SC(N)=NC2=O)cc1 | inconclusive: 112 µM [inhibitor, partial curve, poor fit] | – |
| Cc1ccc(S(=O)(=O)NCc2ccc(C(=O)NC3CCC(O)CC3)cc2)cc1C (centres undefined) | – | inactive: -10.7% |
| NC(=O)c1ccc(C(F)(F)F)n(Cc2ccc(F)c(F)c2)c1=O | – | inactive: 0.885% |
| COc1ccc(CSc2ccc(-c3nc4ccccn4c3NCc3ccccc3)cc2OC)cc1 | inconclusive: 14.1 µM [inhibitor, partial curve] | – |
| O=C(CCc1c[nH]c2ccccc12)Nc1ncccc1O | – | inactive: 0.668% |
| COc1ccc(CNC(=O)c2ccc(CS(=O)(=O)c3ccccc3OC)o2)cc1 | – | inactive: 6.25% |
| Cc1ccc(S(=O)(=O)c2nnn3c2nc(Nc2cccc(C)c2)c2ccccc23)cc1 | inconclusive: 2.51 µM [inhibitor, full curve] | – |
| CCc1nc(-c2cc3ccc(C)cc3[nH]c2=O)no1 | – | inactive: 7.83% |
| CCOC(=O)C1=C(C)NC(=O)NC1c1ccc(OCC(=O)Nc2ccccc2)c(OC)c1 (centres undefined) | inconclusive: 6.31 µM [inhibitor, full curve] | – |
| O=C(N/C(=C\c1cccc(Br)c1)C(=O)N1CCCCC1)c1ccco1 | inconclusive: 7.94 µM [inhibitor, partial curve, poor fit] | – |
| COc1cccc(C(C)N(C)Cc2nc(-c3ccoc3)oc2C)c1 (centres undefined) | – | inactive: -7.63% |
| O=C(O)CC1SC(N/N=C/c2ccc(Br)cc2)NC1=O (centres undefined) | inconclusive: 0.562 µM [inhibitor, full curve, poor fit] | – |
| CCCCN(C)C(=O)c1ccc(S(=O)(=O)N2CCOCC2)cc1 | inconclusive: 25.1 µM [inhibitor, single point] | – |
| CC(C)(C)C(=O)/C(=C\c1ccc([N+](=O)[O-])cc1)n1cncn1 | – | inactive: -10.4% |
| O=C(Nc1cc(=O)c2ccccc2o1)N1CCCCC1 | inconclusive: 1 µM [inhibitor, full curve, poor fit] | – |
| Nc1nnc2c(n1)[nH]c1ccccc12 | – | inactive: 2.28% |
| COc1ccc(NC(=O)N2CCC3(CC2)OCCO3)cc1 | – | inactive: 4.34% |

| SMILES | Potency | activity change, negative = inhibition |
| --- | --- | --- |
| O=C(N/N=C/C(Br)=C/c1ccccc1)c1ccccc1F | inconclusive: 20 µM [inhibitor, partial curve] | – |
| O=C(O)c1ccc(N/N=C/c2cc(Br)cs2)cc1 | – | inactive: 0.358% |
| Cc1sc2nc3ccc(N4CCCCC4)nn3c(=O)c2c1C | – | inactive: -9.4% |
| CCCc1nc(SCC(=O)NCc2ccco2)c2c(=O)n(C)c(=O)n(C)c2n1 | inconclusive: 1.41 µM [inhibitor, full curve] | – |
| CCCCN(C(=O)c1ccc(N(C)S(=O)(=O)c2ccc(C)cc2)cc1)c1c(N)n(CCCC)c(=O)[nH]c1=O | inconclusive: 1.41 µM [inhibitor, full curve] | – |
| COC(=O)C1SCC2C(=O)N(Cc3ccc(F)cc3)CC(=O)N21 (centres undefined) | inconclusive: 31.6 µM [inhibitor, full curve, poor fit] | – |
| CC(C)c1ccc(NC(=O)NCc2ccc(F)cc2)cc1 | – | inactive: 3.24% |
| Cc1ccc(COc2ccc(C)nc2[N+](=O)[O-])cc1 | inconclusive: 89.1 µM [inhibitor, single point] | – |
| COc1ccc(-c2nn(-c3ccccc3)cc2/C=N/Nc2ccc3ccccc3n2)cc1OC | – | inactive: -5.24% |
| CCCC(=O)n1nc(-c2cccnc2)nc1N | inconclusive: 44.7 µM [inhibitor, partial curve] | – |
| O=[N+]([O-])c1cccc(Cl)c1NCCNS(=O)(=O)c1ccccc1 | inconclusive: 100 µM [inhibitor, single point] | – |
| S=c1nc(-c2ccccc2)[nH]c2ccccc12 | inconclusive: 31.6 µM [inhibitor, full curve] | – |
| O=C(O)CCn1cc(-c2ccc(Cl)cc2)nc1-c1ccncc1 | inconclusive: 22.4 µM [inhibitor, full curve, poor fit] | – |
| COc1cccc(-n2c(C)nnc2SCC(=O)Nc2ccccc2N2CCOCC2)c1 | inconclusive: 79.4 µM [inhibitor, partial curve] | – |
| CCc1cccc(NC(=O)CSCc2nc3sc(C)c(C)c3c(=O)[nH]2)c1 | inconclusive: 1.58 µM [inhibitor, full curve, poor fit] | – |
| Cc1nn(-c2ccc(F)cc2)c(Cl)c1/C=N/NC(=O)c1cccs1 | – | inactive: -1.08% |
| CC(C)CN(C(=O)c1cc([N+](=O)[O-])cc([N+](=O)[O-])c1)C1CCS(=O)(=O)C1 (centres undefined) | inconclusive: 1.12 µM [inhibitor, full curve] | – |
| CN1CCN(CC(=O)n2c3c(c4ccccc42)CCCC3)CC1 | inconclusive: 0.631 µM [inhibitor, full curve, poor fit] | – |
| c1cncc(-c2nc(-c3ccc4c(c3)OCO4)cs2)c1 | – | inactive: -14% |
| O=C(COC(=O)/C=C/c1ccc(OC(F)F)cc1)NCc1cccs1 | – | inactive: -0.216% |
| Cn1c(-c2ccc3c(c2)OCO3)cnc1NCc1cccc(O)c1 | – | inactive: -0.301% |
| O=C(/C=C/c1ccc2c(c1)OCO2)N1CCCCC1 | inconclusive: 28.2 µM [inhibitor, full curve, poor fit] | – |
| CCCOc1ccc(C(O)(CCC)CCN2CCCCC2)cc1 (centres undefined) | inconclusive: 0.631 µM [inhibitor, full curve, poor fit] | – |
